Results as given in PubChem BioAssay AID1508624 (National Center for Advancing Translational Sciences (NCATS), 2021).
The whole screen tested about 48,000 compounds, of which about 120 (0.25%) were called active. Not shown: some 4% with an inconclusive outcome. Calls come from the whole dose curve; as a rule, active = well fitted activation curve with a large enough effect; inconclusive = small, poorly fitted or top-dose-only effect, or another doubt; inactive = no such curve, though single readings can be large or run the other way. This is one part of the list.

assay: Primary qHTS for Identification of Small Molecule Activators of Huntingtin-Antisense Promoter Activity; conditions: HEK293 HTT-AS promoter firefly luciferase reporter (activity 0% = vehicle and -100% = no light), 24 h; series mostly up to 57.5 µM; activity change, positive = activation: at the top concentration; note: nearly all actives have a fitted effect of over 55% in size
Outline: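 HEK293 luciferase promoter-reporter cells (2,500/well) plated 24 h, then compounds added at up to 57.5 uM final for 24 h at 37 °C. Firefly luminescence by Dual-Glo, normalized to vehicle (0%) and zero RLU (-100%).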

Row | SMILES | activity change, positive = activation
1 | Cc1cc(OC(C)C(=O)N(Cc2ccco2)Cc2ccccc2F)cc(C)c1Cl (configuration not stated) | inactive: -35.7%
2 | Cc1ccc(CCNC(=O)C2CCN(c3nnc(C)c4c(C)n(-c5ccccc5)nc34)CC2)cc1 | inactive: -12.5%
3 | COc1ccc(-c2cc(C(=O)Oc3cccc(C)c3)c3ccccc3n2)cc1 | inactive: 11.2%
4 | COc1ccc(NC(=O)C2CCCN(C(=O)c3cnn(-c4ccc(F)cc4)c3-n3cccc3)C2)cc1 (configuration not stated) | inactive: -10.6%
5 | COc1ccc(NC(=O)CSc2nc3ncccc3[nH]2)c(OC)c1 | inactive: -10.9%
6 | Cn1c(=O)cc(OCC(=O)N2CCN(c3ccccc3)CC2)c2ccccc21 | inactive: -3.9%
7 | Cc1ccc(NC(=O)CSCc2cnn(-c3ccccc3)c2-n2cccc2)c(C)c1 | inactive: -39.6%
8 | CCOc1cccc2sc(N(Cc3cccnc3)C(=O)C3CCCCC3)nc12 | inactive: -21.3%
9 | Cc1ccc(NC(=O)CSc2nc3ccccc3c3nc(CCn4cncc4C)nn23)cc1F | inactive: -16.6%
10 | CCc1ccccc1NC(=O)c1ccc(F)c(S(=O)(=O)NC2CCCCCC2)c1 | inactive: -18.5%
11 | Cc1ccc(C)c(N2CCN(CCCNC(=O)C3COc4ccccc4C3)CC2)c1 (configuration not stated) | inactive: -29%
12 | CN1CCN(C(c2ccccc2Cl)c2sc3nc(-c4ccco4)nn3c2O)CC1 (configuration not stated) | inactive: -10.6%
13 | CCC(=O)N1CCc2cc(Br)cc(S(=O)(=O)N3CCN(c4ccc(C(C)=O)cc4)CC3)c21 | inactive: -3.87%
14 | CC1CCN(c2ccc(NC(=O)c3cccc(Cl)c3)cc2C(=O)O)CC1 | inactive: 6.32%
15 | CCCS(=O)(=O)c1ncc(Cl)c(C(=O)N2CCN(c3ccc(OC)cc3)CC2)n1 | inactive: -94.7%
16 | CN(C)Cc1cccc(N=C(c2ccccc2)c2c(O)[nH]c3cc(C(=O)N(C)C)ccc23)c1 | inactive: -23.5%
17 | Cc1ccc2ncc(C(=O)NCc3ccccc3Cl)c(=O)n2c1 | inactive: 7.79%
18 | CC(=O)Nc1ccccc1-c1nc2ccccc2n(CC(=O)c2ccc(C)c(C)c2)c1=O | inactive: -13.3%
19 | CCC(CC)C(=O)Nc1ccc(OCc2cc(=O)n3ccsc3n2)cc1 | inactive: 12%
20 | Cc1nc(N2CCCC2)c2c(C(=O)Nc3ccc(C)c(Cl)c3)c(C)oc2n1 | inactive: 1.32%
21 | CCOc1ccccc1C1N=C(N)Nc2nc3ccccc3n21 (configuration not stated) | inactive: -13.3%
22 | CCOC(=O)c1c(S(=O)(=O)N2CCC(C(=O)N3CCN(c4cccc(C)c4C)CC3)CC2)c(C)n(C)c1C | inactive: -13.7%
23 | CCC(CC)C(=O)Nc1cc(-c2cn3cccnc3n2)ccc1OC | inactive: -15.1%
24 | Cc1ccccc1-c1nnc(CN2CCN(c3cc(Cl)ccc3C)CC2)o1 | inactive: -8.74%
25 | COC(=O)c1c(C)oc2ccc(N(C(=O)c3ccncc3)S(=O)(=O)c3cc(C)c(C)cc3C)cc12 | inactive: -59.8%
26 | COc1ccc(C(CC(=O)Nc2ccc(C)cn2)N2Cc3ccccc3C2=O)cc1OC (configuration not stated) | inactive: -22.6%
27 | CCOC(=O)N1CCC(NC(=O)c2ccc3c(c2)N(Cc2cccc(C)c2)C(=O)c2ccccc2S3(=O)=O)CC1 | inactive: -34%
